Measurements taken from article PMC4336329 (PLoS ONE, 2015).
The campaign covered roughly 310,000 compounds. About 14,000 (4.5%) showed an effect of 50% or more. The effect is printed as a negative number. The list shows a part of the results.
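Further: peak tail current of the secondary pulse compared with the same well before compound.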

The molecules below were run against human ether-à-go-go-related gene (hERG) potassium channel (human, UniProt Q12809) (assay: primary screen, population patch clamp on CHO cells stably expressing hERG).
human ether-à-go-go-related gene (hERG) potassium channel, sequence (Q12809 whole entry, looked up): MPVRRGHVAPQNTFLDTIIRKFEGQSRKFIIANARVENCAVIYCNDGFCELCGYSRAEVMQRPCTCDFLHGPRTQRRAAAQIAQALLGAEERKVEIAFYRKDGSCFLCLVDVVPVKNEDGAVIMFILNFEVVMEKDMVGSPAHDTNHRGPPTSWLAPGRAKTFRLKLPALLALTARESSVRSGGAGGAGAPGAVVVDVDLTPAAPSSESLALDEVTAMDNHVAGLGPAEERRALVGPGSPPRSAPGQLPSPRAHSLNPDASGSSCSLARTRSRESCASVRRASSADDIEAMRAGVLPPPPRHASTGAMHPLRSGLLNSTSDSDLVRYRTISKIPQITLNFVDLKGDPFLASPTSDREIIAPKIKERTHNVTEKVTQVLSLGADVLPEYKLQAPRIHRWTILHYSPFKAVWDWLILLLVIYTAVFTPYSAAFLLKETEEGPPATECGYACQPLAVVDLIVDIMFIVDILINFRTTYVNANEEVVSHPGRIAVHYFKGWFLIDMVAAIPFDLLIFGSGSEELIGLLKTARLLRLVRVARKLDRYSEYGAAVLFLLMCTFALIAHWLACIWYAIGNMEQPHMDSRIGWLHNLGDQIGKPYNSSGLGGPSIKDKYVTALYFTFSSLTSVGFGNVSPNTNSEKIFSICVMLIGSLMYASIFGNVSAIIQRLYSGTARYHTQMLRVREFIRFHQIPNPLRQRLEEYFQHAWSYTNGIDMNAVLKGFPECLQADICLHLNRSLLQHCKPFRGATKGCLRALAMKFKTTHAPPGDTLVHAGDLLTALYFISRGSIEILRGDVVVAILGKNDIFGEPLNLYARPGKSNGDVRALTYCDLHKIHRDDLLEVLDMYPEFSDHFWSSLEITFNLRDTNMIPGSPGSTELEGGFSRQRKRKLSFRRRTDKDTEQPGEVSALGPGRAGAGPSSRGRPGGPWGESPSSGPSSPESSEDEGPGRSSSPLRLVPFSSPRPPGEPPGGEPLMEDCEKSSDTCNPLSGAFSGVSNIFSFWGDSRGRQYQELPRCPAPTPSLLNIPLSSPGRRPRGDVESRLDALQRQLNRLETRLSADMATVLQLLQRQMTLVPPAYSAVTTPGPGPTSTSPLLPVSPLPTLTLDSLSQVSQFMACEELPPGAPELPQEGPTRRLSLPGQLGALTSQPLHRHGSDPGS
`CC1(C)CC(=O)C/C(=N/NC(=O)COc2ccc3ccccc3c2Br)C1` was tested, and the “hERG current change (%, negative = inhibition) at 10uM” value was 3.85%.
With `CC(C)(C)NC(=O)CN(CC1CCCO1)C(=O)CNS(=O)(=O)c1ccc(F)cc1` (stereo not shown) the “hERG current change (%, negative = inhibition) at 10uM” value was 25.7%.
For `Cl.O=C(c1ccco1)N1CCN(Cc2nnnn2CCc2ccccc2)CC1`, the “hERG current change (%, negative = inhibition) at 10uM” value was -29.5%.
In the case of `CC(=O)N1N=C(c2cccs2)CC1c1ccc(Br)cc1` (stereo not shown), the “hERG current change (%, negative = inhibition) at 10uM” value is reported as -10.1%.
With `Cc1ccc(NC(=O)CSc2nc(=O)n3cc(C)ccc3n2)c(C)c1` the “hERG current change (%, negative = inhibition) at 10uM” value was -11.4%.
For `COc1cc(C(=O)Nc2nnc(CC(=O)N3CCOCC3)s2)cc(OC)c1OC`, the “hERG current change (%, negative = inhibition) at 10uM” value was 13.3%.
For `COc1ccc2c(c1)O[C@@H](c1cccc(C(F)(F)F)c1)[C@H](OC(=O)NCCc1ccc(OC)c(OC)c1)C2=O`, the “hERG current change (%, negative = inhibition) at 10uM” value was -0.231%.
`Cc1ccc(/C=c2\s/c(=C(/C#N)C(=O)N3CCCC3)n(Cc3ccco3)c2=O)s1` was tested, and the “hERG current change (%, negative = inhibition) at 10uM” value was 0.109%.
In the case of `COc1ccc(C(=O)Nc2nc3ccc(OC)cc3s2)cc1`, the “hERG current change (%, negative = inhibition) at 10uM” value is reported as 12.6%.
With `O=C(CN1CCN(Cc2ccccc2)CC1)Nc1ccc(Cl)cc1` the “hERG current change (%, negative = inhibition) at 10uM” value was -68.4%.
In the case of `Cc1n[nH]c(C)c1S(=O)(=O)N1CCOCC1`, the “hERG current change (%, negative = inhibition) at 10uM” value is reported as 0.207%.
In the case of `O=C(c1ccc(CS(=O)c2cccc(Cl)c2)o1)N1CCOCC1` (stereo not shown), the “hERG current change (%, negative = inhibition) at 10uM” value is reported as 10.8%.
For `COc1ccc(NC(C)=O)cc1S(=O)(=O)NC(Cc1ccccc1)C(=O)NCc1ccccc1C` (stereo not shown), the “hERG current change (%, negative = inhibition) at 10uM” value was -13.1%.
`CC(C)(C)NC(=O)c1nc2ccccc2s1` was tested, and the “hERG current change (%, negative = inhibition) at 10uM” value was -6.99%.
With `Cn1c(=O)c2cc(S(=O)(=O)NCCC(=O)Nc3ccc(F)cc3F)ccc2n(C)c1=O` the “hERG current change (%, negative = inhibition) at 10uM” value was 12%.
`Cc1ccc(-n2[nH]c(C)c(/C=N/n3c(C)nc4ccccc4c3=O)c2=O)cc1` was tested, and the “hERG current change (%, negative = inhibition) at 10uM” value was -0.523%.
With `CCc1c(-c2ccccc2)nc2nc(C)c(C)nn12` the “hERG current change (%, negative = inhibition) at 10uM” value was -14.1%.
With `COc1ccc(OC)c(NC(=O)CSc2nc(C)cs2)c1` the “hERG current change (%, negative = inhibition) at 10uM” value was -16.1%.
For `Cc1ccc(S(=O)(=O)NN2C(=O)c3ccccc3NC2(C)C)cc1`, the “hERG current change (%, negative = inhibition) at 10uM” value was 4.2%.
For `Cn1cc(C(=O)C(=O)NCCc2ccccc2)c2ccccc21`, the “hERG current change (%, negative = inhibition) at 10uM” value was 5.73%.
With `Cc1ccc(-c2noc(CN3CCN(C(c4ccccc4)c4ccccc4)CC3)n2)cc1` the “hERG current change (%, negative = inhibition) at 10uM” value was 7.84%.
With `O=C(NCc1cccnc1)c1ccc2c(c1)N(Cc1ccccc1)CCS2` the “hERG current change (%, negative = inhibition) at 10uM” value was -25.4%.
In the case of `COc1ccc2c(c1)C(=O)CC(c1ccc(OC)c(OC)c1)O2` (stereo not shown), the “hERG current change (%, negative = inhibition) at 10uM” value is reported as 8.18%.
`CCn1cc(C(=O)N[C@@H](C)C(=O)NCCCN2CCOCC2)c(=O)c2cc3c(cc21)OCO3` was tested, and the “hERG current change (%, negative = inhibition) at 10uM” value was 22.5%.
In the case of `O=C(NC1CCCCCCC1)C1CCCN(S(=O)(=O)c2cnc[nH]2)C1` (stereo not shown), the “hERG current change (%, negative = inhibition) at 10uM” value is reported as 12.8%.
For `CC1CCCN(CCCNS(=O)(=O)c2cc(Br)cc3c2N(C(=O)C2CC2)CC3)C1` (stereo not shown), the “hERG current change (%, negative = inhibition) at 10uM” value was -9.8%.
In the case of `Cc1ccn2c(/C=N/OCc3ccc(F)cc3)c(-c3ccc(Cl)cc3)nc2c1`, the “hERG current change (%, negative = inhibition) at 10uM” value is reported as 7.2%.
In the case of `CCC(C(=O)Nc1ccc(C(=O)Nc2ccccc2C(=O)O)cc1)c1ccccc1` (stereo not shown), the “hERG current change (%, negative = inhibition) at 10uM” value is reported as 10.6%.
`O=C(COc1ccccc1Cl)Nn1cnnc1` was tested, and the “hERG current change (%, negative = inhibition) at 10uM” value was 13.3%.
In the case of `COc1cc2c(cc1OC)C(c1cccs1)N(C(=O)c1ccc(S(=O)(=O)N(C)C)cc1)CC2` (stereo not shown), the “hERG current change (%, negative = inhibition) at 10uM” value is reported as -72.6%.
With `COc1ccccc1NC(=O)c1cc2c(CO)cnc(C)c2oc1=Nc1cc(OC)c(OC)c(OC)c1` the “hERG current change (%, negative = inhibition) at 10uM” value was 24.9%.
In the case of `COC(=O)C1=C(C(=O)OC)[C@@H]2Nc3ccccc3[C@@]23C[C@@H](C(=O)OC)N(C(=O)c2cc(C)oc2C)C3=N1`, the “hERG current change (%, negative = inhibition) at 10uM” value is reported as 12.8%.
In the case of `O=C(OCCOc1ccc(Br)cc1)c1cnccn1`, the “hERG current change (%, negative = inhibition) at 10uM” value is reported as -2.06%.
With `COCCC(=O)N1CCCC(C(=O)c2ccc(Oc3ccccc3)cc2)C1` (stereo not shown) the “hERG current change (%, negative = inhibition) at 10uM” value was -79.3%.
In the case of `Cc1ccc(C(=O)NCCNS(C)(=O)=O)cc1`, the “hERG current change (%, negative = inhibition) at 10uM” value is reported as 10%.
For `Cc1ccc(-n2nc3c(=O)n(C(C)C(=O)NCc4ccccc4Cl)nc(C)c3c2C)cc1` (stereo not shown), the “hERG current change (%, negative = inhibition) at 10uM” value was -35.5%.
With `O=C(Cc1cccs1)NCc1cn2ccccc2n1` the “hERG current change (%, negative = inhibition) at 10uM” value was 2.26%.
For `Cc1ccc(C)c(NS(=O)(=O)c2ccc3oc(=O)ccc3c2)c1`, the “hERG current change (%, negative = inhibition) at 10uM” value was -2.97%.
For `Cc1cc(=O)oc2cc(OCC(=O)N3CCN(c4ccc(F)cc4)CC3)c(Cl)cc12`, the “hERG current change (%, negative = inhibition) at 10uM” value was 5.01%.
`O=C(COC(=O)c1ccccn1)Nc1cc(Cl)ccc1Cl` was tested, and the “hERG current change (%, negative = inhibition) at 10uM” value was 9.34%.
In the case of `CCn1cnc2c1c(=O)n(Cc1cccc([N+](=O)[O-])c1)c(=O)n2Cc1ccccc1`, the “hERG current change (%, negative = inhibition) at 10uM” value is reported as 3.59%.
In the case of `Clc1ccccc1COc1ccc(/C=N/n2cnnc2)cc1`, the “hERG current change (%, negative = inhibition) at 10uM” value is reported as -0.271%.
For `O=C(Nc1nc2ccccc2n1CCN1CCCCC1)c1ccco1`, the “hERG current change (%, negative = inhibition) at 10uM” value was -54.8%.
`Cc1ccc(C(=O)CCC(=O)OCC(=O)N(C)c2c(N)n(Cc3ccccc3)c(=O)[nH]c2=O)cc1` was tested, and the “hERG current change (%, negative = inhibition) at 10uM” value was 5.56%.
With `COc1ccc(C2(C(=O)NCCCN(C)C)CCOCC2)cc1` the “hERG current change (%, negative = inhibition) at 10uM” value was 7.45%.
For `CCCC(=O)Nc1nnc(Sc2ccc(N(C)C)cc2)s1`, the “hERG current change (%, negative = inhibition) at 10uM” value was 3.19%.
`Cc1ccc2c(c1)nnn2C1CCN(C(=O)C2CCCCC2)CC1` was tested, and the “hERG current change (%, negative = inhibition) at 10uM” value was -31.3%.
In the case of `Cc1cc(N/N=C/c2ccc(Cl)cc2)nc(NCc2ccccc2)n1`, the “hERG current change (%, negative = inhibition) at 10uM” value is reported as 3.74%.
For `Cn1cccc1-c1cc(C(=O)O)[nH]n1`, the “hERG current change (%, negative = inhibition) at 10uM” value was 17.9%.
For `Cn1cc(Cl)c(C(=O)OCC(=O)c2ccccc2)n1`, the “hERG current change (%, negative = inhibition) at 10uM” value was 15.7%.
With `CCCn1nc(C(=O)Nc2nnc(C3CC3)s2)c2ccccc2c1=O` the “hERG current change (%, negative = inhibition) at 10uM” value was -31.6%.
With `CC1CCC2(CC1)NC(=O)N(CC(=O)NCc1ccc3c(c1)OCO3)C2=O` (stereo not shown) the “hERG current change (%, negative = inhibition) at 10uM” value was 11.2%.
With `c1coc(CNc2nc3ccccc3s2)c1` the “hERG current change (%, negative = inhibition) at 10uM” value was 11.1%.
`COc1ccc(N(CC(=O)Nc2cccc(C)c2)S(=O)(=O)c2c(C)noc2C)cc1` was tested, and the “hERG current change (%, negative = inhibition) at 10uM” value was 5.38%.
For `Nc1cccc2c(=O)c3ccccc3[nH]c12`, the “hERG current change (%, negative = inhibition) at 10uM” value was -2.11%.
